According to the RNAGym collection of RNA variant scans (doi:10.1093/nar/gkz1192):
Read counts are not given, so values of variants with three or more changes are uncertain.

B1: CPEB3 Ribozyme (parent)
chain: UAACAGGGGGCCACAGCAGAAGCGUUCACGUCGCAGCCCCUGUCAGAUUCUGGUGAAUCUGCGAAUUCUGCUGUAUAUCUC

Variants of: B1
Experiment: self-cleavage, relative activity (ratio to wild type); higher = more cleavage; in vitro, sequencing
In short: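 Barcoded CPEB3 ribozyme mutants, produced by rounds of error-prone PCR, self-cleaved while being transcribed with T7 RNA polymerase for 5 hours at 37°C and during a subsequent 15 min DNase I step before EDTA was added. Sequencing of template-switched cDNA on Illumina gave cleaved and total reads, and DNA sequencing assigned barcodes to variants. Each variant's relative activity is its cleaved/total read fraction divided by the unmutated ribozyme's fraction, averaged across three batches. A variant needed a minimum of 5 reads.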

Variant	self-cleavage
UAACAAGGGGCCACAGCAGAAGCGUUCACGACGCAGCCCCUGUCAGAUACUGGUGAAUCUGCGAAUUCUGCUGUAUAUCUC [G6A U31A U49A]	0.06
UAACAAGGGGCCACAGCAGAAGCGUUCACGACGCAGCCCCUGUCAGAUUCUGGCGAAUCAGCGAACUCAGCUGUAUAUCUC [G6A U31A U54C U60A U66C U69A]	0.06
UAACAAGGGGCCACAGCAGAAGCGUUCACGCCGCAGCCCCUGUCCGAUUCUGGUGAACCUGCGAAUUCUGCCCUAUAUCUC [G6A U31C A45C U58C U72C G73C]	0.11
UAACAAGGGGCCACAGCAGAAGCGUUCACGUCGCAGCCCCUGACAGGUUCUGGUGAAUCUGCGAAUUCUGCUGAAUAUCUC [G6A U43A A47G U74A]	0.24
UAACAAGGGGCCACAGCAGAAGCGUUCACGUCGCAGCCCCUGCCAGAUUCAGGUGAGUCUGCGAAUUCCGCUGUAUAUCUC [G6A U43C U51A A57G U69C]	0.1
UAACAAGGGGCCACAGCAGAAGCGUUCACGUCGCAGCCCCUGCCAGAUUCUGGUGAAUCUGCGAAUUCCACUGUAUGACUC [G6A U43C U69C G70A A77G U78A]	0.04
UAACAAGGGGCCACAGCAGAAGCGUUCACGUCGCAGCCCCUGUCAGAAUCUGGUGAGUCUGCGAGCUCUGCUGUAUAUCUC [G6A U48A A57G A65G U66C]	0.05
UAACAAGGGGCCACAGCAGAAGCGUUCACGUCGCAGCCCCUGUCAGACUUUGGUGAAUCUGCGAACUCCGCUGUAUAUCAC [G6A U48C C50U U66C U69C U80A]	0.16
UAACAAGGGGCCACAGCAGAAGCGUUCACGUCGCAGCCCCUGUCAGAUUCUGGAGGAUCUGCGAAUUCUGCUGUAUAUCUC [G6A U54A A56G]	0.1
UAACAAGGGGCCACAGCAGAAGCGUUCACGUCGCAGCCCCUGUCAGAUUCUGGAGAAUCUGCGAAGUCUGCUGAAUAUCUC [G6A U54A U66G U74A]	0.2
UAACAAGGGGCCACAGCAGAAGCGUUCACGUCGCAGCCCCUGUCAGAUUCUGGCGAAUCAGCGAAUUCUGCUGUAUAUCUC [G6A U54C U60A]	0.1
UAACAAGGGGCCACAGCAGAAGCGUUCACGUCGCAGCCCCUGUCAGAUUCUGGUGAACAUGCGAAUUCUGCUGUAUAUCUC [G6A U58C C59A]	0.3
UAACAAGGGGCCACAGCAGAAGCGUUCACGUCGCAGCCCCUGUCAGAUUCUGGUGAACCCGCGAAUUCUGCUGUAUAUCUC [G6A U58C U60C]	0.22
UAACAAGGGGCCACAGCAGAAGCGUUCACGUCGCAGCCCCUGUCAGAUUCUGGUGAAUCCGCGAAUACUGCUGUAUAUCUC [G6A U60C U67A]	0.37
UAACAAGGGGCCACAGCAGAAGCGUUCACGUCGCAGCCCCUGUCAGAUUCUGGUGAAUCCGCGAAUUCUGCUGUAUAUCCC [G6A U60C U80C]	0.47
UAACAAGGGGCCACAGCAGAAGCGUUCACGUCGCAGCCCCUGUCAGAUUCUGGUGAAUCUGCGAAUUCUGCAGUAUAUCCC [G6A U72A U80C]	0.34
UAACAAGGGGCCACAGCAGAAGCGUUCACGUCGCAGCCCCUGUCAGAUUCUGGUGAAUCUGCGAAUUCUGCUGAGUAUCUC [G6A U74A A75G]	0.51

Variant	self-cleavage
UAACACGGGGCCCCAGCAAAAGCGUUCACGUCGCAGCCCCUGUCAGAUUCUGGUGAAUCAGCGAAUUCUGCUGUAUAUCUC [G6C A13C G19A U60A]	0.1
UAACACGGGGCCGCAGCAGAAGCGUUCACGUUGCAGUCCCUGUCAGAUUCUGGUGAAUCUGCGAAUUCUGCUGUAUACCUC [G6C A13G C32U C37U U78C]	0.06
UAACACGGGGCCUCAGCAGAAGCGUUCACGUCGCGGCCCCUGUCAGUUUCUGGUGAAUCUGCGAAUUCUGCUGUAUAUCUC [G6C A13U A35G A47U]	0.12
UAACACGGGGCCACGGCAGAAGCGUUCACGUCGCAGCCCCUGUCAGAUUCGGGUGGAUCCGCGAAUUCUGCUGUAUAUCUC [G6C A15G U51G A56G U60C]	0.14
UAACACGGGGCCACAGCGGAAGCGUUCACGUCGCAGCCCCUGUCAGAUUCUGGCGAAUCUGCGAACUAUGCCGUAUAUCUC [G6C A18G U54C U66C C68A U72C]	0.09
UAACACGGGGCCACAGCUGAAGCGUUCGCGUCGCAGCCCCUGUCAGAUUCUGGUGAAUUAGCGAAUUCUGCUGUAUAACUC [G6C A18U A28G C59U U60A U78A]	0.06
UAACACGGGGCCACAGCAGAUGCGUCCACGUCGCAGCCCCAGUCAGACUCUGGUGAAUCUGCGAAUUCUGCUGUGUAUCUC [G6C A21U U26C U41A U48C A75G]	0.05
UAACACGGGGCCACAGCAGAAGCGUUCACGUCGCAGCCCCUGUCAGAUUCUGGUGAAUCUGCGAAUUCUCCUGCAUAUCUC [G6C G70C U74C]	0.17
UAACACGGGGCCACAGCAGAAGCGCUCACGUCGCGGCCCCUGUCAGAUUCUGGUGAAUCUGCGAAUUCUGCUGUAUAUCUC [G6C U25C A35G]	0.17
UAACACGGGGCCACAGCAGAAGCGUCCUCGUCGCAGCCCCUGUCAGGCUCUGGUGAUUCUGCGAAUUCUGCUGUAUAUCUC [G6C U26C A28U A47G U48C A57U]	0.58
UAACACGGGGCCACAGCAGAAGCGUCCACGUCGCGGCCCCUGUCAGAUUCUGGUGUAUCUGCGAAUUCUGCUGUAUAUCUC [G6C U26C A35G A56U]	0.25
UAACAUGGGGCCGCAGCAGAAGCGUUCACGUCGCAGCCCCUGUCAGAUUCUCGUGAAUCUGCGAAUUCUGCUGUAUAUCUC [G6U A13G G52C]	0.21
UAACAUGGGGCCUCAGCAGAAGCGUUCACGUCGCAGCCCCUGUCAGAUUCUGGUGAAUCUGCGAGCUCUGCUGUAUAUCUC [G6U A13U A65G U66C]	0.07
UAACAUGGGGCCUCAGCAGAAGCGUUCACGUCGCAGCCCCUGUCAGAUUCUGGUGAAUCCGCGAAUUCUGCUGUAUACCUC [G6U A13U U60C U78C]	0.21
UAACAUGGGGCCUCAGCAGAAGCGUUCACGUCGCAGCCCCUGUCAGAUUCUGGUGAAUCUGCGAAUUCUGCAGUAUAUCUC [G6U A13U U72A]	0.09
UAACAUGGGGCCACGGCAGGAGCGUUCACGUCGCAGCCCCUGUCAGAUUCUGGCGAAUCCGCGUAUUCUGCUGUAUAUCUC [G6U A15G A20G U54C U60C A64U]	0
UAACAUGGGGCCACGGCAGAAGCGUUCACGUCGCAGCACCUGUCAGACUCUGGUGAUUCUGCGAAUUGUGCUGUAUAUCUC [G6U A15G C38A U48C A57U C68G]	0.04
